pIC50: −log10 of the molar value. By IC50 is meant the dose at which the fit gives 50% viability; where the fit passes the top or lowest dose, that dose stands as a limit. The AUC spans the tested range (256-fold, ending at the top dose) of the same fit; values near 1 show little effect. For some of these results: An inferred top dose was calculated from the reported fits. For some of these results: Where an entry number is given, a second screen of the drug exists; the two often differ.
Experiments:
Experiment in all cases: Viability of human cancer cell lines after 72 h of drug (GDSC screen)
ZM-447439 = compound: COc1cc2c(Nc3ccc(NC(=O)c4ccccc4)cc3)ncnc2cc1OCCCN1CCOCC1 [ZM-447439]; details: top dose inferred
Protocol: (§1)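 Human cancer cell lines in 384-well plates, medium with 10% serum, drug for 72 h over a 256-fold dose range (nine 2-fold or five 4-fold steps up to the top dose). Adherent lines were fixed and stained with the nucleic acid dye Syto60, suspension lines read with resazurin; signal relative to control wells, capped at 0 and 100%. One two-parameter sigmoid per drug and line, fitted in a mixed model over all curves with the slope shared within a line.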

AZD6244 = compound: Cn1cnc2c(F)c(Nc3ccc(Br)cc3Cl)c(C(=O)NOCCO)cc21 [AZD6244]; details: screen: GDSC drug entry 1062
Protocol: as §1

PD-0332991 = compound: CC(=O)c1c(C)c2cnc(Nc3ccc(N4CCNCC4)cn3)nc2n(C2CCCC2)c1=O [PD-0332991]
Protocol: as §1

Cell Line | AUC (ZM-447439) | pIC50 (ZM-447439) | AUC (AZD6244) | pIC50 (AZD6244) | AUC (PD-0332991) | pIC50 (PD-0332991)
22RV1 (prostate, adherent, top dose 4 µM) | 0.964 | < 5.40 | 0.929 | < 5.40 | – | –
451Lu (melanoma, adherent, top dose 4 µM) | – | – | 0.976 | < 5.40 | 0.856 | 5.52
A549 (lung adenocarcinoma, adherent, top dose 4 µM) | 0.942 | < 5.40 | 0.972 | < 5.40 | – | –
A704 (kidney, adherent, top dose 4 µM) | – | – | 0.985 | < 5.40 | 0.96 | < 5.40
BT-20 (breast, adherent, top dose 4 µM) | 0.935 | < 5.40 | 0.94 | < 5.40 | – | –
CAL-78 (chondrosarcoma, adherent, top dose 4 µM) | 0.986 | < 5.40 | 0.986 | < 5.40 | – | –
CHSA0011 (chondrosarcoma, adherent, top dose 4 µM) | – | – | 0.955 | < 5.40 | 0.934 | < 5.40
DU-4475 (breast, suspension, top dose 4 µM) | 0.929 | < 5.40 | 0.976 | < 5.40 | – | –
EFM-192A (breast, adherent, top dose 4 µM) | – | – | 0.941 | < 5.40 | 0.934 | < 5.40
EKVX (lung adenocarcinoma, adherent, top dose 4 µM) | – | – | 0.902 | < 5.40 | 0.932 | < 5.40
EN (endometrium, adherent, top dose 4 µM) | – | – | 0.984 | < 5.40 | 0.984 | < 5.40
H513 (mesothelioma, semi-adherent, top dose 4 µM) | 0.985 | < 5.40 | 0.986 | < 5.40 | – | –
H3118 (head and neck, adherent, top dose 4 µM) | – | – | 0.926 | < 5.40 | 0.664 | 6.12
HA7-RCC (kidney, adherent, top dose 4 µM) | – | – | 0.985 | < 5.40 | 0.797 | 5.68
HCC1500 (breast, adherent, top dose 4 µM) | 0.982 | < 5.40 | 0.977 | < 5.40 | – | –
HCC1806 (breast, adherent, top dose 4 µM) | 0.898 | < 5.40 | 0.921 | < 5.40 | – | –
HCC-366 (non-small cell lung carcinoma, adherent, top dose 4 µM) | – | – | 0.988 | < 5.40 | 0.972 | < 5.40
HCT-116 (large intestine, adherent, top dose 4 µM) | 0.761 | 5.87 | 0.702 | 6.05 | – | –
HD-MY-Z (Hodgkin lymphoma, adherent, top dose 4 µM) | – | – | 0.98 | < 5.40 | 0.884 | < 5.40
HT55 (large intestine, adherent, top dose 4 µM) | – | – | 0.99 | < 5.40 | 0.957 | < 5.40

Cell Line | AUC (ZM-447439) | pIC50 (ZM-447439) | AUC (AZD6244) | pIC50 (AZD6244) | AUC (PD-0332991) | pIC50 (PD-0332991)
HUTU-80 (digestive system, adherent, top dose 4 µM) | 0.717 | 6.04 | 0.991 | < 5.40 | – | –
HeLa (cervix, adherent, top dose 4 µM) | – | – | – | – | 0.986 | < 5.40
Hep 3B2_1-7 (liver, adherent, top dose 4 µM) | – | – | 0.978 | < 5.40 | 0.97 | < 5.40
Hs-578-T (breast, adherent, top dose 4 µM) | – | – | 0.986 | < 5.40 | 0.702 | 6.02
IA-LM (large cell lung carcinoma, adherent, top dose 4 µM) | – | – | 0.983 | < 5.40 | 0.89 | < 5.40
IGR-37 (melanoma, adherent, top dose 4 µM) | 0.927 | < 5.40 | 0.223 | 7.37 | – | –
JHOS-2 (ovary, adherent, top dose 4 µM) | – | – | 0.954 | < 5.40 | 0.784 | 5.70
JHOS-3 (ovary, adherent, top dose 4 µM) | – | – | 0.984 | < 5.40 | 0.984 | < 5.40
JHU-011 (head and neck, adherent, top dose 4 µM) | – | – | 0.93 | < 5.40 | 0.474 | 6.67
JIMT-1 (breast, adherent, top dose 4 µM) | – | – | 0.968 | < 5.40 | 0.945 | < 5.40
Jurkat (T-cell leukaemia, suspension, top dose 4 µM) | 0.993 | < 5.40 | 0.975 | < 5.40 | – | –
KON (head and neck, adherent, top dose 4 µM) | – | – | 0.916 | < 5.40 | 0.613 | 6.29
L-363 (myeloma, suspension, top dose 4 µM) | 0.898 | 5.42 | 0.965 | < 5.40 | – | –
LB1047-RCC (kidney, adherent, top dose 4 µM) | – | – | 0.975 | < 5.40 | 0.64 | 6.19
LC-1-sq (lung squamous cell carcinoma, adherent, top dose 4 µM) | – | – | 0.949 | < 5.40 | 0.893 | < 5.40
LN-229 (glioma, adherent, top dose 4 µM) | – | – | 0.746 | 5.90 | 0.837 | 5.58
MCF7 (breast, adherent, top dose 4 µM) | 0.96 | < 5.40 | 0.981 | < 5.40 | – | –
MDA-MB-231 (breast, adherent, top dose 4 µM) | 0.94 | < 5.40 | 0.845 | 5.50 | – | –
MDA-MB-436 (breast, adherent, top dose 4 µM) | – | – | 0.984 | < 5.40 | 0.959 | < 5.40
MDA-MB-453 (breast, adherent, top dose 4 µM) | 0.976 | < 5.40 | 0.985 | < 5.40 | – | –

Cell Line | AUC (ZM-447439) | pIC50 (ZM-447439) | AUC (AZD6244) | pIC50 (AZD6244) | AUC (PD-0332991) | pIC50 (PD-0332991)
MDA-MB-468 (breast, adherent, top dose 4 µM) | 0.904 | < 5.40 | 0.962 | < 5.40 | – | –
MOLM-13 (acute myeloid leukaemia, suspension, top dose 4 µM) | 0.692 | 6.08 | 0.972 | < 5.40 | – | –
MS751 (cervix, adherent, top dose 4 µM) | – | – | 0.989 | < 5.40 | 0.99 | < 5.40
MV-4-11 (leukaemia, suspension, top dose 4 µM) | 0.69 | 6.12 | 0.952 | < 5.40 | – | –
NCI-H838 (lung adenocarcinoma, adherent, top dose 4 µM) | – | – | 0.987 | < 5.40 | 0.675 | 6.10
NCI-H1437 (lung adenocarcinoma, adherent, top dose 4 µM) | 0.908 | < 5.40 | 0.947 | < 5.40 | – | –
NCI-H1568 (lung adenocarcinoma, adherent, top dose 4 µM) | 0.917 | < 5.40 | 0.936 | < 5.40 | – | –
NCI-H2066 (small cell lung carcinoma, adherent, top dose 4 µM) | – | – | 0.98 | < 5.40 | 0.979 | < 5.40
NCI-H2110 (non-small cell lung carcinoma, adherent, top dose 4 µM) | 0.964 | < 5.40 | 0.936 | < 5.40 | – | –
NCI-H2172 (non-small cell lung carcinoma, adherent, top dose 4 µM) | 0.979 | < 5.40 | 0.967 | < 5.40 | – | –
NCI-H3122 (lung adenocarcinoma, adherent, top dose 4 µM) | 0.947 | < 5.40 | 0.896 | < 5.40 | – | –
OAW-42 (ovary, adherent, top dose 4 µM) | – | – | 0.983 | < 5.40 | 0.963 | < 5.40
OMC-1 (cervix, adherent, top dose 4 µM) | – | – | 0.988 | < 5.40 | 0.988 | < 5.40
OV-7 (ovary, adherent, top dose 4 µM) | – | – | 0.927 | < 5.40 | 0.954 | < 5.40
OV-17R (ovary, adherent, top dose 4 µM) | – | – | 0.966 | < 5.40 | 0.955 | < 5.40
OVCA433 (ovary, adherent, top dose 4 µM) | – | – | 0.961 | < 5.40 | 0.873 | < 5.40
OVCAR-3 (ovary, adherent, top dose 4 µM) | 0.897 | < 5.40 | 0.969 | < 5.40 | – | –
OVTOKO (ovary, adherent, top dose 4 µM) | 0.866 | < 5.40 | 0.857 | < 5.40 | – | –
SW1573 (lung adenocarcinoma, adherent, top dose 4 µM) | 0.909 | < 5.40 | 0.938 | < 5.40 | – | –
T47D (breast, adherent, top dose 4 µM) | 0.924 | < 5.40 | 0.966 | < 5.40 | – | –

Reference: the supplement of paper PMC4967469
